Measurements as given in paper doi:10.1101/2025.04.19.649678, “Allosteric modulation of dimeric GPR3 by ligands in the dimerization interface” (bioRxiv, 2025).

Molecular target: the molecule itself
Assay: SEC; fluorescence-detection SEC (FSEC) of GPCR-mCherry from Expi293F cells solubilised in 1 % DDM, 0.1 % CHS; Zenix-C SEC-300 column, 20 mM HEPES, 150 mM NaCl, 100 μM TCEP, 0.03 % DDM, 0.003 % CHS

B1: GPR3WT (GPCR-mCherry fusion construct) (receptor, UniProt P46089 1-330, looked up)
chain: MMWGAGSPLAWLSAGSGNVNVSSVGPAEGPTGPAAPLPSPKAWDVVLCISGTLVSCENALVVAIIVGTPAFRAPMFLLVGSLAVADLLAGLGLVLHFAAVFCIGSAEMSLVLVGVLAMAFTASIGSLLAITVDRYLSLYNALTYYSETTVTRTYVMLALVWGGALGLGLLPVLAWNCLDGLTTCGVVYPLSKNHLVVLAIAFFMVFGIMLQLYAQICRIVCRHAQQIALQRHLLPASHYVATRKGIATLAVVLGAFAACWLPFTVYCLLGDAHSPPLYTYLTLLPATYNSMINPIIYAFRNQDVQKVLWAVCCCCSSSKIPFRSRSPSDV
notes: source: Expi293F, transfected, in solubilised lysate (1 % DDM, 0.1 % CHS)
  stoichiometry N: 2
